Consider 73 sequences from the supplement of paper PMC10338343.

± gives the standard deviation. In all, about 3,000 sequences were measured (“pre-steady-state target cleavage rate”: median about 0.0079, highest 2% from about 0.2 on). The list shows a part of the results, in another mix than the full data.

The assay deals with MILI (PIWIL2) piRISC loaded with piRNA #2 (26 nt). Kind of assay: pre-steady-state target cleavage rate (min^-1); MIWI and MILI are mouse PIWI proteins and EfPiwi is from a freshwater sponge; tags in brackets are library labels; higher = faster piRNA-guided slicing of the target. As to conditions: guide: piRNA #2 5'p-UUAGGUAACCCAGUAGAUCCAGAGGA; auxiliary factor: 500 nM mouse GTSF1. In outline: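 Sequencing of uncleaved targets, normalised to depth and to weakly complementary targets, was the readout of this Cleave-'n-Seq assay. A transcribed, DNA-blocked target RNA library (0.1 nM) was mixed with 1 nM active affinity-purified piRISC carrying one synthetic guide, with or without 500 nM GTSF1 partner protein, in HEPES–potassium acetate buffer at 33 °C for 0–8 or 0–960 min. Three trials were pooled, k3 was capped at 0.0001 min^-1, and a burst-and-steady-state fit gave the pre-steady-state cleavage rate.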
For CUUAUCCUCUCGAUCUACUGGGUUUCCUAA, the “pre-steady-state target cleavage rate” value stood at 0.171 ± 0.045. Take CUUAAGGAGUGAUCUACUGGGUUACCUAA: the “pre-steady-state target cleavage rate” value was 0.00697 ± 0.0033. Next, CUUAACCUCUGGAUCUAGUGGGUUACCAAA: 0.0493 ± 0.011; CUUAAGCUCACCAUCUACUGGGUUACCUAA: 0.00577 ± 0.004; CUUAAGGUCUGGAUCUACUGGGUUAUCCUAA: 0.0784 ± 0.018. In the case of CUUAUCCAUCUGGAUCUACUGGGUUACCUAA it was 0.103 ± 0.018; in that of CUUAAGGAGAGGAUCUACUGGGUUACCUUAA, 0.0068 ± 0.0052; in that of CUUAAGGUCUGGAUCUACUGGGUUACGUAA, 0.0334 ± 0.01. Next, CUUAUCCUCUGGAUCUAGUGGGUUAGCUAA: 0.0264 ± 0.0075; CUUAAGGACCUGGAUCUACUGGGUUACCUAA: 0.0218 ± 0.013; CUUAUCCUCUGGAACUAGUGGGUUACCUAA: 0.107 ± 0.022. Turning to CUUAAGCUCUGGUUCUACUGGGUUACGUAA, the “pre-steady-state target cleavage rate” value was found to be 0.0928 ± 0.036. In the case of CUUAAGCUCUGGAUCUACUGGGUAACGUAA it was 0.0173 ± 0.0066; in that of CUUAAGGACUGGAUCGACUGGGUUACCUAA, 0.028 ± 0.017. Next, CUUAACCUCUGGAUCUUCUGGGUUUCCUAA: 0.243 ± 0.083; CUUAAGGAGUGGACCUACUGGGUUACCUAA: 0.0235 ± 0.0084; CUUAAGCUCUGUGAUCUACUGGGUUACCUAA: 0.0332 ± 0.01.

For the sequence CUUAACCUCUGGUUCUACUGCGUUACCUAA, the “pre-steady-state target cleavage rate” value amounted to 0.0235 ± 0.0092. For CUUAAGGACUGGAUCUAGUGGGUAACCUAA, the “pre-steady-state target cleavage rate” value worked out at 0.0103 ± 0.0079. Next, CUUAACCUCUGGAUCUACAGGGUUUCCUAA: 0.0711 ± 0.022. Take CUUAAGGAGACCUUCUACUGGGUUACGAUA: the “pre-steady-state target cleavage rate” value was less than 0.0001. In the case of CUUAAGGACUGGGUCUACUGGGUUACCUAA it was 0.0227 ± 0.015; in that of CUUAAGGUCUGGAUCCACUGGGUUACCUAA, 0.0447 ± 0.01. In the case of CUUAAGGAGUGGAUCUAAUGGGUUACCUAA it was 0.0278 ± 0.0079; in that of CUUAAGGAGUGGAUCUUCUGGGUUACCUAA, 0.0205 ± 0.0088. In the case of CUUAAGGAGUGGCAUCUACUGGGUUACCUAA it was 0.128 ± 0.058.

Turning to CUUAAGCUCUGGAUGUACUGGGUUUCCUAA, the “pre-steady-state target cleavage rate” value was determined as 0.0435 ± 0.021.

Take CUUAAGCUCUGGUUGUACUGGGUUACCUAA: the “pre-steady-state target cleavage rate” value was found to be 0.0943 ± 0.018. Next, CUUAUCCAGUGGAUCUACUGGGUUACCUAA: 0.0917 ± 0.018; CUUAAGGAGUGGAUCUAGAGGGUUACCUAA: 0.0116 ± 0.0037. Turning to CUUAAGGAGACCUAGAUGUGGGUUACCUGA, the “pre-steady-state target cleavage rate” value is less than 0.0001.

Take CUUAAGCUCUGGAUCUUCUGGGUUACGUAA: the “pre-steady-state target cleavage rate” value was found to be 0.0233 ± 0.0083. In the case of CUUAAGCUCUGGAUGUACUGCGUUACCUAA it was 0.0117 ± 0.0053.

On to CUUAAGCCUGGAUCUACUGGGUUACCUAA, for which the “pre-steady-state target cleavage rate” value stood at 0.104 ± 0.026. As for CUUAACCUCUGGAUGAACUGGGUUACCUAA, the “pre-steady-state target cleavage rate” value was 0.0583 ± 0.015. In the case of CUUAAGGACUGGAUCUACUGGGUUGACCUAA it was 0.011 ± 0.0094; in that of CUUAAGGUCUGGAUCUUCUGGGUAACCUAA, 0.0086 ± 0.0056; in that of CUUAAGGAGUGGAUCUACUGGGUUACCAA, 0.0144 ± 0.005.

As to CUUAACCUCUGGAUCUACGGGUUACCUAA, the “pre-steady-state target cleavage rate” value is 0.0165 ± 0.0065. In the case of CUUAAGGAGUGGAUCUUCAGGGUUACCUAA it was 0.0231 ± 0.0065; in that of CUUAACCUCUGGAUCUAGUGGGUUAGCUAA, 0.0139 ± 0.0064. Take CUUAAGGUCUGGAUCAACUGGGUUACCAAA: the “pre-steady-state target cleavage rate” value is 0.0256 ± 0.0083. In the case of CUUAAGCUGUGGUUCUACUGGGUUACCUAA it was 0.0437 ± 0.014. In the case of CUUAUCCUCUGGAUCUACAGGGUUACCAAA it was 0.102 ± 0.019; in that of CUUAAGCACUGGAUCUUCUGGGUUACCUAA, 0.0825 ± 0.017; in that of CUUAUCCUCUGGCUCUACUGGGUUACCUAA, 1.12 ± 0.3. Next, CUUAAGGUCAUGGAUCUACUGGGUUACCUAA: 0.0733 ± 0.016; CUUAACCUCUGUAUCUACUGGGUUACCUAA: 0.071 ± 0.013; CUUAUCCUCUGGAUCUACAGGGUUACGUAA: 0.0553 ± 0.013. On to CUUAAGCUCUGGAUCUAGUGGGUUACCUUA, for which the “pre-steady-state target cleavage rate” value came to 0.0243 ± 0.0063. In the case of CUUAAGCUCUGGAUAUACUGGGUUACCUAA it was 0.0695 ± 0.011; in that of CUUAAGGUGUGGAUCUACUGGGUAACCUAA, 0.0132 ± 0.0074. In the case of CUUAACCUCUGGAUCUUCUGGGAUACCUAA it was 0.0362 ± 0.013; in that of CUUAAGGUCUGCAUCUACUGGGUUACCUAA, 0.0733 ± 0.018. Next, CUUAACCUCUGGAUGUUCUGGGUUACCUAA: 0.104 ± 0.021; CUUAAGCUCUGGUUCUACUGGGUAACCUAA: 0.0704 ± 0.022. With CUUAACUCUGGAUCUACUGGGUUACCUAA, the “pre-steady-state target cleavage rate” value amounted to 0.0419 ± 0.016. On to CUUAACCUCUGGAUCUUCUGCGUUACCUAA, for which the “pre-steady-state target cleavage rate” value amounted to 0.0107 ± 0.0047. Regarding CUUAAGGUCUGGAUCUACUAGGUUACCUAA, the “pre-steady-state target cleavage rate” value worked out at 0.0507 ± 0.011.

As for CUUAAGCUCUGGAUCUUCUGCGUUACCUAA, the “pre-steady-state target cleavage rate” value was 0.00616 ± 0.0049. In the case of CUUAAGGUCUGAUCUACUGGGUUACCUAA it was 0.00931 ± 0.005; in that of CUUAAGGAGACCUAGAUGAGGCGUUACCUAA, less than 0.0001. Next, CUUAACCUCUGGAUCUACUAGGGUUACCUAA: 0.0106 ± 0.0063; CUUAUCCUCUGGAUCUACUGGGUUACCUGA: 0.838 ± 0.37. In the case of CUUAAGCACUGGAUCUACUGGGUUACCUUA it was 0.0828 ± 0.015; in that of CUUAAGGUCUGGAUCUACAGGGUUACCUUA, 0.0369 ± 0.01; in that of CUUAACCUCUCGAUCUACUGGGUUACCUAA, 0.138 ± 0.02.

As to CUUAAGGUGUGGAUCUACUGGGAUACCUAA, the “pre-steady-state target cleavage rate” value came to 0.011 ± 0.008.

As for CUUAACCUCAGGAUCUACUGGGAUACCUAA, the “pre-steady-state target cleavage rate” value is 0.0226 ± 0.0094. Next, CUUAAGCUACUGGAUCUACUGGGUUACCUAA: 0.0681 ± 0.02; CUUAAGCUCAGGAUCUACUGGGUUACCUAA: 0.0974 ± 0.019. As to CUUAAGCACUGGAUCUACUGCGUUACCUAA, the “pre-steady-state target cleavage rate” value stood at 0.0136 ± 0.0047.

For CUUAAGGACUGGAUCUAGUGGGUUAGCUAA, the “pre-steady-state target cleavage rate” value came to 0.00844 ± 0.0048.
